Experimental findings from article PMC10468942, “A Fluorescent Probe as a Lead Compound for a Selective α-Synuclein PET Tracer: Development of a Library of 2-Styrylbenzothiazoles and Biological Evaluation of [^18F]PFSB and [^18F]MFSB” (ACS Omega, 2023) are described below.

Molecules are shown by their SMILES. Some entries of the source have several records that differ or are many. This is not the full list of results. An entry can have further records. The records of an entry seem to repeat one measurement on other runs, samples or individuals.

For this assay, the target named is T1, αSYN fibrils (Homo sapiens, UniProt P37840).
T1 construct: cloning of the DNA construct encoding full-length αSYN into the pET-22b vector; made in house; host or cells: Escherichia coli BL21
Kind of assay: [^3H]PiB competition binding assay on αSYN fibrils. As to conditions: nonmethylated compounds, Table 1; two values in a cell = single determinations; a: mean Ki ± SEM of three data points; b: single data point. The procedure:
Following the cloning of the DNA construct encoding full-length αSYN into the pET-22b vector and its transformation into BL21 cells, the expression of human αSYN from a prokaryotic host was induced overnight in Escherichia coli at 20 °C with 0.5 mM IPTG. The cells were harvested by centrifugation, resuspended in 20 mM Tris-HCl pH 7.6, 25 mM NaCl and 1× complete protease inhibitor (Roche, Basel, Switzerland), and lysed by sonication. […] Anion exchange chromatography (HiTrap Q, GE Healthcare, Chicago, Illinois) was used to trap the produced αSYN, which was eluted with NaCl 0.1 M over 20 column volumes. Fractions containing αSYN were concentrated and further purified through a Superdex 75 SEC column equilibrated with PBS. […] A 4 mg/mL solution of αSYN in 20 mM K3PO4 pH 9.1 was placed in an orbital shaker at 37 °C, 1000 rpm for 5 days to prepare P91s. The assemblies were either sonicated with cycles of 20 s on and 10 s off at 50% amplitude (Q800R3, Qsonica) for a total of 10 min or directly aliquoted in volumes of 10 μL each stored at −80 °C until use. […]
Plates were incubated on a shaker (MaxQ 6000, Thermo Fisher Scientific, Inc., Marietta, OH) at 50 rpm for 2 h at 37 °C, covered by removable sealing tapes (PerkinElmer, Waltham, MA). Vacuum filtration and read-out were performed as previously reported.[17] […]

In the case of `c1ccc2sc(-c3ccc(N4CCCCC4)cc3)nc2c1` [13a, 2-(4-(Piperidin-1-yl)phenyl)benzo[d]thiazole], the Ki is 134 nM and 12.1 nM [one cell].

As usually defined, the Ki is the equilibrium dissociation constant of an inhibitor or competing ligand from its target.
